Results published in PubChem BioAssay (NCI).
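How tested: cells in 96-well plates exposed to compound for 48 hours at five concentrations. TGI denotes the concentration required for complete inhibition of growth.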 For part of its entries the source gives two or more results. This is not the full list of results. An entry can have further records. The tests behind the records often covered other concentration ranges, not given here; some values may only mark the edge of a range.

What was measured:
Assay in all cases: inhibition of tumour cell growth, NCI panel, 48 h
A498 renal = tested on: A498 renal
KM20L2 colon = tested on: KM20L2 colon
COLO 205 colon = tested on: COLO 205 colon
HCC-2998 colon = tested on: HCC-2998 colon
DLD-1 colon = tested on: DLD-1 colon
DMS 114 small cell lung = tested on: DMS 114 small cell lung
SF-268 CNS = tested on: SF-268 CNS
SK-MEL-5 melanoma = tested on: SK-MEL-5 melanoma
MALME-3M melanoma = tested on: MALME-3M melanoma
SNB-75 CNS = tested on: SNB-75 CNS
OVCAR-8 ovarian = tested on: OVCAR-8 ovarian
HCT-116 colon = tested on: HCT-116 colon
RXF 393 renal = tested on: RXF 393 renal
SF-539 CNS = tested on: SF-539 CNS
NCI-H460 lung = tested on: NCI-H460 lung
HL-60(TB) leukemia = tested on: HL-60(TB) leukemia
SR leukemia = tested on: SR leukemia

Q: How did the TGI (A498 renal) turn out when COc1cc2c(c(OC)c1OC)-c1ccc(SC)c(=O)cc1C(CO)C2 (configuration not stated) was run?
A: Its TGI is 452 nM and > 100 µM.

Q: And the TGI (KM20L2 colon)?
A: Its TGI is 321 nM and < 10 nM.

Q: What about the TGI (COLO 205 colon) of the same molecule?
A: The TGI was 433 nM and < 10 nM.

Q: What about the TGI (HCC-2998 colon) of the same molecule?
A: The TGI was 443 nM and 36.2 nM.

Q: And the TGI (DLD-1 colon)?
A: Its TGI is 771 nM and > 100 µM.

Q: And the TGI (DMS 114 small cell lung)?
A: Its TGI is 332 nM and < 10 nM.

Q: What about the TGI (SF-268 CNS) of the same molecule?
A: Its TGI is 761 nM and > 100 µM.

Q: And the TGI (SK-MEL-5 melanoma)?
A: The TGI was 894 nM and > 100 µM.

Q: And the TGI (MALME-3M melanoma)?
A: Its TGI is 925 nM and > 100 µM.

Q: What about the TGI (SNB-75 CNS) of the same molecule?
A: The TGI was 198 nM and > 100 µM.

Q: And the TGI (OVCAR-8 ovarian)?
A: Its TGI is 392 nM and > 100 µM.

Q: And the TGI (HCT-116 colon)?
A: The TGI was 380 nM and > 100 µM.

Q: And the TGI (RXF 393 renal)?
A: Its TGI is 588 nM and < 10 nM.

Q: And the TGI (SF-539 CNS)?
A: Its TGI is 373 nM and < 10 nM.

Q: What about the TGI (NCI-H460 lung) of the same molecule?
A: The TGI was 785 nM and 15 µM.

Q: How did the TGI (HL-60(TB) leukemia) turn out when CCC(C)(CC(C)(C)C(=O)NCC(=O)NC(Cc1ccccc1)C(=O)NC(Cc1ccccc1)C(=O)NCC(=O)NC1CC(OC2CC(O)(C(=O)CO)Cc3c(O)c4c(c(O)c32)C(=O)c2c(OC)cccc2C4=O)OC(C)C1O)C(=O)NCC(C)O (configuration not stated) was run?
A: Its TGI is 3.85 µg/mL and > 150 µg/mL.

Q: How did the TGI (SR leukemia) turn out when CC1CCC(NC(=O)N(CCCl)N=O)CC1 (configuration not stated) was run?
A: The TGI was 5.04 µM and 185 µM.
